Reference: PubChem BioAssay AID1347043 (National Center for Advancing Translational Sciences (NCATS), 2019)
In all, about 76,000 compounds went through this assay and about 1,900 (2.5%) were called active. The inconclusive results got no clear call from the source; some entries with a clear call stand among them for comparison. Calls follow the shape of the dose curve; as a rule, active = well fitted inhibition curve with a large enough effect; inconclusive = small, poorly fitted or top-dose-only effect; inactive = flat fitted curve, though single readings scatter. A potency beside an inconclusive call is a rough fit, not a confirmed value.

target: Luciferin 4-monooxygenase (Photinus pyralis) (UniProt P08659); assay: Firefly luciferase inhibition profiling of diverse chemical library using quantitative high-throughput screening; also: nearly all actives have a fitted effect of over 65% in size; details: purified P. pyralis luciferase, luminescence, biochemical; activity change, negative = inhibition: at 115 µM (top of the series) unless noted
Outline: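 Inhibitors were tested against purified firefly luciferase in a biochemical, low-substrate format (both substrates at 10uM) and luminescence measured with a CCD imager.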
% is scaled to controls: 0 for no effect and ±100 for the full control effect; potency is read from the fitted curve at half-maximal effect; tags tell the direction and shape of the fitted curve.

Chain of UniProt P08659 (P08659 whole entry, looked up): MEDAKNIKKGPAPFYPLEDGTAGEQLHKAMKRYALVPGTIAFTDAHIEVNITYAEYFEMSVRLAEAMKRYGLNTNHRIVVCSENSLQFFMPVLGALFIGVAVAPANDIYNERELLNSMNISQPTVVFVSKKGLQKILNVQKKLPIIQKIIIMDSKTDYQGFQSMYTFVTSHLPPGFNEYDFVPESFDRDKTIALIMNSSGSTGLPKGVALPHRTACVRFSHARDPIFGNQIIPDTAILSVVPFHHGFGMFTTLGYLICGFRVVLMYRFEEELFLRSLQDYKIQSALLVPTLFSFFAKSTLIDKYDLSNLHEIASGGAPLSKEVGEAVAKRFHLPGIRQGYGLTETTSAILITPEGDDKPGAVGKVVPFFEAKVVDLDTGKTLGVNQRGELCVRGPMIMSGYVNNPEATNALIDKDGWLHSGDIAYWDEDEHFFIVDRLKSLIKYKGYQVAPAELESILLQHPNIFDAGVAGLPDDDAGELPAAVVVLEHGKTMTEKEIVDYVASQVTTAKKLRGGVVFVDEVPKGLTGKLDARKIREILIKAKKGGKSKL

Compound | activity change, negative = inhibition | Potency
O=C([C@@H]1C[C@H](F)CN1S(=O)(=O)Cc1ccc(Cl)cc1)N1CCc2ccccc2C1 | inactive: 10.1% | 
CCC(C(=O)NC1CCN(c2cn[nH]c(=O)c2)CC1)c1ccccc1 (centres undefined) | inactive: -1.15% | 
Cc1cccc(NC(=O)N2CCC(Oc3ccc(-c4noc(C)n4)cc3)C2)c1 (centres undefined) |  | inconclusive: 39.8 µM [inhibitor, partial curve]
Cc1ccc2nc([C@H]3CCN(C4CCC4)C3)[nH]c2c1 |  | inconclusive: 20 µM [inhibitor, full curve]
COc1ccc(-c2cc3c(nc2OC)nc(CC2CC2)n3C)cc1 |  | inconclusive: 79.4 µM [inhibitor, partial curve, poor fit]
COCCN(CC1CCCN(C2Cc3ccccc3C2)C1)C(=O)c1cc(C)nn1C (centres undefined) | inactive: -2.02% | 
CCC(=O)N1c2ccccc2CC1c1nc(C(C)C)no1 (centres undefined) |  | inconclusive: 44.7 µM [inhibitor, partial curve]
COc1ccc(C(=O)N2CCC3(CC2)N=C(c2ccc(C)cc2)NO3)cc1 |  | inconclusive: 44.7 µM [inhibitor, partial curve]
O=C(c1nc(-c2ccsc2)c2ccccn12)N1CCN(c2ncccn2)CC1 | inactive: -3.99% | 
CNC(=O)[C@@H]1CN(C(=O)NCc2ccco2)C[C@H]1c1nc(C)no1 | inactive: 2.85% | 
Cc1cc(C)cc(NC(=O)C2CCN(C(=O)c3ncn4c3COC(c3ccccc3)C4)CC2)c1 (centres undefined) |  | active: 8.91 µM
CCCNC(=O)C1(CCO)CCN(c2ncccn2)C1 (centres undefined) | inactive: -7.91% | 
CCCn1cc2c3c(cccc31)CN(C(=O)c1ccc(OC)cc1)CC2 |  | inconclusive: 50.1 µM [inhibitor, partial curve]
CCCCc1cn(CC2CCN(C(=O)c3sc(C)nc3C)CC2)nn1 | inactive: -11.8% | 
Cc1cc(F)ccc1OCC(=O)c1ccc2c(c1)N(C(C)C(=O)N1CCCCC1)C(=O)CO2 (centres undefined) |  | inconclusive: 44.7 µM [inhibitor, partial curve, poor fit]
O=C(c1ccc(Oc2ccccc2)cc1)N1CCNc2cnc(Nc3cccnc3)nc2C1 |  | inconclusive: 35.5 µM [inhibitor, partial curve]
CC(=O)NC1(C)CCN(Cc2ccc(Nc3ccccc3)cc2)C1 (centres undefined) |  | inconclusive: 79.4 µM [inhibitor, partial curve]
COc1cccc(CC(=O)NCCc2noc(-c3cccnc3)n2)c1 | inactive: -5.71% | 
O=C(NCCN1CCOCC1)c1ccc2c(c1)CC(=O)N2Cc1cccc(F)c1 |  | inconclusive: 50.1 µM [inhibitor, partial curve]
CCOc1cccc(CNC(=O)c2cc3c(=O)[nH]c(C)cn3n2)c1 |  | inconclusive: 44.7 µM [inhibitor, partial curve]
COCCNC(=O)c1noc(-c2ccccc2F)n1 |  | inconclusive: 44.7 µM [inhibitor, partial curve, poor fit]
O=C(NCC1CC1)c1cc(Br)cn2ccnc12 |  | inconclusive: 50.1 µM [inhibitor, partial curve]
COc1ccccc1-c1cnc2n[nH]c(-c3ccccc3C)c2n1 |  | inconclusive: 70.8 µM [inhibitor, partial curve]

Compound | activity change, negative = inhibition | Potency
O=C1Cc2c(-c3ccc(N4CCOCC4)cc3)n[nH]c2CN1CCc1ccncc1 |  | inconclusive: 63.1 µM [inhibitor, full curve, poor fit]
Cc1cc(C)cc(NC(=O)N2c3ccccc3CC2c2noc(C3CCOCC3)n2)c1 (centres undefined) |  | active: 39.8 µM
CCCN(C)C(=O)c1cc(-c2ccncc2)cn1Cc1ccccc1C | inactive: 15% | 
c1cnn(-c2ccc(-c3n[nH]c(C4CCOCC4)n3)cc2)c1 |  | inconclusive: 44.7 µM [inhibitor, partial curve]
COc1cccc(-c2cc3c(=O)n(CCNC(=O)c4cccnc4)ccn3n2)c1 |  | inconclusive: 31.6 µM [inhibitor, partial curve]
Cc1oc2ccn(Cc3cccc(F)c3)c(=O)c2c1C(=O)NC1CCCC1 |  | inconclusive: 39.8 µM [inhibitor, partial curve]
COc1ccc(C(=O)N(C)Cc2ccccc2C(F)(F)F)cc1 | inactive: -11% [at 172 µM] | 
COc1ccc(NC(=O)N2Cc3[nH]cnc3C[C@H]2c2nc(-c3ccc(F)c(Cl)c3)no2)cc1 |  | inconclusive: 50.1 µM [inhibitor, partial curve]
COc1cccc(C(=O)N2CCC3(CC2)N=C(c2ccc(Br)cc2)NO3)c1 | inactive: -2.35% | 
CCN1C(=O)CCc2cc(NC(=O)c3ccc(OC)cc3C)ccc21 |  | active: 25.1 µM
O=C(OCc1ccccc1)N1CCOCC12CCN(Cc1cccs1)CC2 | inactive: -3.86% [at 172 µM] | 
Cc1ccc(-n2nc3n(c2=O)CCN(C(=O)c2ccccc2)C3)cc1 |  | inconclusive: 44.7 µM [inhibitor, partial curve, poor fit]
Cn1ccc2ccc(C(=O)Nc3ccc4c(c3)C(=O)N3CCC[C@H]3C(=O)N4)cc21 |  | inconclusive: 39.8 µM [inhibitor, partial curve]
O=C(c1ccccc1)N1CCC(n2cc(-c3nc(-c4ccccc4)no3)nn2)C1 (centres undefined) |  | inconclusive: 44.7 µM [inhibitor, partial curve, poor fit]
COc1ccc(-c2cc(N3CCCC(NC(=O)c4cccc(C#N)c4)C3)n[nH]2)cc1 (centres undefined) |  | active: 20 µM
Cc1cc(C(=O)NCC2(COc3cnccn3)C[C@@H](O)[C@@H](O)C2)no1 (some centres undefined) | inactive: -11% [at 172 µM] | 
CCOC(=O)c1cn(C2CN(C(=O)Nc3ccc(F)cc3F)C2)nn1 | inactive: -2.58% | 
O=C(NCC1CCCN(C(=O)c2ccc3[nH]ccc3c2)C1)c1ccc(-c2ccccc2)cc1 (centres undefined) |  | inconclusive: 25.1 µM [inhibitor, full curve]
O=C(Cc1cccnc1)N1CCc2c(nc3cc(-c4ccccc4)[nH]n3c2=O)C1 |  | inconclusive: 39.8 µM [inhibitor, partial curve]
COc1ccc(C(=O)N2CCC(Oc3ccc(-c4noc(-c5ccccc5)n4)cc3)C2)cn1 (centres undefined) |  | inconclusive: 12.6 µM [inhibitor, full curve]
CCc1nc2c(c(-c3ccc(Cl)cc3)n1)CCN(Cc1ccc(C#N)cc1)CC2 | inactive: -0.325% | 
COc1ccc(Nc2ncc(-c3cccnc3)c3c2OCC3)cc1 |  | active: 12.6 µM
COCc1ncc(C)n1CCNC(=O)c1cc(-c2ccc(C)c(C)c2)n[nH]1 |  | inconclusive: 39.8 µM [inhibitor, partial curve]

Compound | activity change, negative = inhibition | Potency
CC(=O)Nc1ccc(CN(C)Cc2cccn2C)cc1 | inactive: 7.45% [at 172 µM] | 
O=C(C1CCCCC1)N1CCCC(n2cc(-c3nc(-c4ccccc4)no3)nn2)C1 (centres undefined) |  | inconclusive: 39.8 µM [inhibitor, partial curve]
COc1cncc(Nc2cnc3ccc(-c4ccccc4)nn23)c1 | inactive: -16.3% [at 172 µM] | 
O=C(NCc1ccccc1)C1CC(c2ccccc2)CN(C(=O)c2ccccc2F)C1 (centres undefined) | inactive: 0.544% | 
CC(C)(C)c1ccc(-c2noc(CNC(=O)CN3C(=O)CNC3=O)n2)cc1 |  | active: 17.8 µM
O=C(Nc1ccccc1)N1Cc2[nH]cnc2C[C@H]1c1nc(-c2ccc3c(c2)OCO3)no1 |  | inconclusive: 50.1 µM [inhibitor, partial curve]
CCNc1cc(N2CCC(CCC(=O)Nc3cc(C)ccc3OC)CC2)ncn1 |  | inconclusive: 39.8 µM [inhibitor, partial curve]
CN(Cc1ccc(-c2ccccc2)cc1)C(=O)c1ccccc1Cl | inactive: -22.4% | 
COCCN1CCCC2(CCN(c3nc(OC)cc(OC)n3)C2)C1=O (centres undefined) | inactive: 3.72% | 
c1ccc(CCc2nc3nccc(-c4ccc5c(c4)OCCCO5)n3n2)cc1 | inactive: 0% | 
CC1=C[C@@H](CO)[C@H](C(C)C)C[C@H]1Cc1nnc(-c2ccc(N(C)C)cc2)o1 |  | inconclusive: 100 µM [inhibitor, partial curve, poor fit]
CN(C)c1cccc(C(=O)NCC2CCN(c3cc(-c4ccc(Cl)cc4)[nH]n3)CC2)c1 |  | inconclusive: 39.8 µM [inhibitor, partial curve]
O=C(c1ccncc1)N1CCC(Oc2ccccc2-c2nc(-c3ccccc3)no2)C1 (centres undefined) |  | inconclusive: 22.4 µM [inhibitor, full curve, poor fit]
COc1ccc(-c2cc(N3CCC(NC(=O)c4ccncc4)C3)n[nH]2)cc1 (centres undefined) |  | inconclusive: 44.7 µM [inhibitor, partial curve]
COCCn1cnc2ccc(-c3ccc4c(ccn4C)c3)nc2c1=O | inconclusive: -30.2% [inhibitor] [at 172 µM] | 
COc1ccc(CCC(=O)N2CCC[C@H]2c2nc(-c3ccc(C)cc3)no2)cc1 |  | inconclusive: 44.7 µM [inhibitor, partial curve]
Cc1ccc(C)c(-c2cc3c(=O)n(CCNC(=O)c4cccs4)ccn3n2)c1 |  | inconclusive: 50.1 µM [inhibitor, partial curve]
CC(C)(C)c1ccc(C(=O)Nc2nc3c(s2)C[C@@H]2[C@](C)(CO)[C@H](O)CC[C@@]2(C)[C@@H]3CC(=O)NCc2ccco2)cc1 |  | inconclusive: 39.8 µM [inhibitor, partial curve, poor fit]
CNC(=O)[C@H]1C[C@H](Oc2ccccc2)CN1C(=O)CCc1ccccc1 |  | inconclusive: 10 µM [inhibitor, full curve]
CN1c2cc(C(=O)NCc3cc(F)cc(F)c3)ccc2C(=O)N2CCCCC21 (centres undefined) | inactive: -2.54% | 
Oc1ccccc1CN1CCNc2cc(Nc3cccnc3)ncc2C1 |  | inconclusive: 25.1 µM [inhibitor, full curve]
Cc1cc2occ(CC(=O)N3CC[C@](C)(O)[C@@H](O)C3)c2cc1Cl |  | inconclusive: 56.2 µM [inhibitor, partial curve, poor fit]
O=C(c1ccncc1)N1CC(Oc2ccc(-c3noc(-c4ccccc4)n3)cc2)C1 |  | inconclusive: 4.47 µM [inhibitor, full curve, poor fit]
